Measured values published in ChEMBL document CHEMBL1157539, “Thousands of chemical starting points for antimalarial lead identification” (Nature, 2010).
“And” between values parts separate entries of the source, which are not always exact repeats. Equal entries are not always repeated. The full ranking holds about 13,000 compounds; the median of “IFI” is about 4, and the highest 2% start at about 17. The list shows a part of the results.

Assay: GSK_TCMDC: Inhibition Frequency Index (IFI). The number of non-kinase HTS assays where a compound showed > 50 % inhibition, expressed as a percentage of the number of such assays in which the compound was tested (-0 is zero)
Format: functional

| Compound | IFI |
| --- | --- |
| O=C(c1cc(C(=O)NCc2ccc(Cl)cc2)c(=O)n(Cc2ccc(Cl)cc2)c1)c1cc(F)ccc1O | 3.03% |
| CCCCn1c(C)c(C(=O)OCC)c2cc(OC(C)=O)c(Br)cc21 | 2.1% |
| O=C(NC1CCC(CN2CCC(c3c[nH]c4ccccc34)CC2)CC1)c1csc(-c2ccc(C(F)(F)F)cc2Cl)n1 (stereo unspecified) | 7.8% |
| CC(=O)C1(c2ccccc2)CCN(CCC2(c3ccc(Cl)c(Cl)c3)CN(C(=O)CC(C)C)CCO2)CC1 (stereo unspecified) | 4.03% |
| CN1C(=O)OC[C@@H]1Cc1ccc2[nH]cc(C3=CCN(Cc4ccccc4)CC3)c2c1 | -0% |
| CC(Cc1ccc(SCCSc2ccccc2)cc1)NCC(O)c1cccc(Cl)c1 (stereo unspecified) | 9.35% |
| CCOC(=O)CCCN1C(=O)CN=C(c2ccccc2)c2cc(Cl)ccc21 | -0% |
| CC[C@H]1CN2CC[C@@H]1C[C@H]2[C@H](O)c1cc(-c2c(C)noc2C)nc2ccc(OC)cc12 | 0.74% |
| Cc1[nH]c2ccccc2c1C1=CCN(CC2CC2C(=O)c2ccccc2)CC1 (stereo unspecified) | 4.27% |
| Cc1nc(-c2ccc(-c3ccc(C(=O)Nc4ccc5c(c4)C4(CCNCC4)CO5)cc3)c(C)c2)no1 | 5.26% |
| O=C(C=Cc1ccc(Br)cc1)NC1CCC(CN2CCC(c3c[nH]c4ccccc34)CC2)CC1 (stereo unspecified) | 6.38% |
| CN1C(=O)[C@H](NC(=O)[C@@H](Cc2ccccc2)NC(=S)Nc2ccccc2)N=C(c2ccccc2)c2ccccc21 | -0% |
| Cc1c(C(=O)NC2CCC(CN3CCC(c4c[nH]c5ccccc45)CC3)CC2)cnn1-c1c(Cl)cc(Cl)cc1Cl (stereo unspecified) | 10% |
| CC[C@H]1CN2CCc3cc(OC)c(OC)cc3[C@@H]2C[C@@H]1C[C@H]1NCCc2c1cc(OC)c(O)c2Cl | 9.52% |
| O=C(NC1CCC(CN2CCC(c3c[nH]c4ccccc34)CC2)CC1)NC12CC3CC(CC(C3)C1)C2 (stereo unspecified) | 4.9% |
| N=c1c2c(n(Cc3ccc(Cl)cc3Cl)c3c1CCC3)CCCC2 | 2.76% |
| COc1ccc(C(=O)C2CC2CN2CC=C(c3c[nH]c4ccccc34)CC2)cc1 (stereo unspecified) | 4.42% |
| COc1ccc2[nH]cc(C3CC4CCC(C3)N4CCC3CCN(C(=O)/C=C/c4ccc(Cl)c(Cl)c4)CC3)c2c1 (stereo unspecified) | 13.6% |
| CN1CCC(COC(=O)C(O)(c2ccccc2)c2ccccc2)C1 (stereo unspecified) | 2.19% |

| Compound | IFI |
| --- | --- |
| CC(Cc1ccc(Oc2ccc(Cl)cc2)cc1)NCC(O)c1cccc(Cl)c1 (stereo unspecified) | 7.3% |
| Cc1cc(O)cc2c(C3CCN(CC4CCN(C(=O)/C=C/c5ccc(Cl)c(Cl)c5)CC4)CC3)c[nH]c12 | 4.93% |
| O=c1n[n+](C2CCCCC2)[n-]o1 | -0% |
| Cc1[nH]c2ccccc2c1C1=CCN(CCCCCNC(=O)/C=C/c2ccc(Cl)c(Cl)c2)CC1 | 5.34% |
| COC(=O)c1ccc(CC(C)NCC(O)c2ccc3ccc4ccccc4c3c2)cc1 (stereo unspecified) | 13.4% |
| CC[C@H]1CN2CC[C@H]1C[C@H]2C(O)c1cc(OC)nc2ccccc12 (stereo partly specified) | 0.71% |
| CC(=O)Nc1ccc(CN2CCC(N(C)c3cc(NC(=O)c4cccc(F)c4)ccn3)CC2)cc1 | -0% |
| Cc1[nH]c2ccc(NS(C)(=O)=O)cc2c1C1CCN(CC2CCN(C(=O)/C=C/c3ccc(Cl)c(Cl)c3)CC2)CC1 | 2.17% |
| Cc1cc(N(C)C2CCN(C)CC2)nc(Nc2ccc(Cl)cc2)n1 | 2.41% |
| COc1ccc2nc(-c3ccc(F)cc3)cc([C@@H](O)[C@@H]3C[C@@H]4CCN3CC4C=NO)c2c1 (stereo partly specified) | 1.46% |
| CC[C@H]1CN2CC[C@@H]1C[C@H]2[C@H](O)c1cc(N2CCSCC2)nc2ccc(OC)cc12 | 3.77% |
| CC(=O)N(Cc1cccc(-c2ccc(CNCCc3ccccc3)cc2)c1)C1CCN(Cc2ccccc2)CC1 | 7.46% |
| O=C(Cc1cc(=O)oc2cc(O)ccc12)N1CCC(CN2CCC(c3c[nH]c4ccccc34)CC2)CC1 | 4.41% |
| CC[C@H]1CN2CC[C@@H]1C[C@H]2[C@H](O)c1cc(N2CCC(C(N)=O)CC2)nc2ccc(OC)cc12 | 1.54% |
| S=C(Nc1ccccc1Cl)NC1CCC(CN2CCC(c3c[nH]c4ccccc34)CC2)CC1 (stereo unspecified) | 4.41% |
| O=C(C=Cc1ccccc1Br)NC1CCC(CN2CCC(c3c[nH]c4ccccc34)CC2)CC1 (stereo unspecified) | 3.73% and 4.48% |
| Cc1c(C(=O)N[C@@H](C)c2ccccc2)c2cc(O)c(Br)cc2n1C1CCCCC1 | 3.85% |
| CCCCCCCc1cc(=O)c2ccccc2[nH]1 | 2.08% |
| O=C(/C=C/c1cc([N+](=O)[O-])ccc1Cl)NC1CCC(CN2CCC(c3c[nH]c4ccccc34)CC2)CC1 (stereo unspecified) | 3.73% |

| Compound | IFI |
| --- | --- |
| O=C(C=Cc1ccccc1C(F)(F)F)NC1CCC(CN2CCC(c3c[nH]c4ccccc34)CC2)CC1 (stereo unspecified) | 4.51% and 4.48% |
| Cc1[nH]c2cc(Cl)ccc2c1C1=CCN(CCN2CCOc3c(Br)cccc3C2=O)CC1 | 3.65% |
| CC(Cc1ccc(NC(=O)CCCc2ccccc2)cc1)NCCc1cccc(Cl)c1 (stereo unspecified) | 4.29% |
| N#Cc1c(F)cc(N2CCC(NCC[C@H](N)Cc3ccc(F)c(F)c3)CC2)cc1F | 21.9% |
| Oc1ccc(CN2CCN(CCOC(c3ccc(F)cc3)c3ccc(F)cc3)CC2)cc1Cl | 7.09% |
| COc1cccc(C(=O)C2CC2CN2CC=C(c3c[nH]c4cccc(Br)c34)CC2)c1 (stereo unspecified) | 3.31% |
| Cc1ccc(C2(O)CC3CCC(C2)N3C)cc1 (stereo unspecified) | -0% |
| CN(c1ccnc(Nc2ccc(CS(C)(=O)=O)cc2)n1)C1CCN(Cc2ccccc2)CC1 | 4.58% |
| COc1ccc(C(=O)C2CC2CN2CC=C(c3c[nH]c4cccc(Br)c34)CC2)cc1 (stereo unspecified) | 11.9% |
| CC1=C(C(=O)NC2CCC(CN3CCC(c4c[nH]c5ccccc45)CC3)CC2)Cc2ccccc21 (stereo unspecified) | 7.86% and 6.43% |
| C#CCOc1ccc(CC(C)NCC(O)c2cccc(C(F)(F)F)c2)cc1 (stereo unspecified) | 4.41% and 6.47% |
| C/C=C1\CN2CC[C@H]1C[C@H]2[C@H](O)c1ccnc2ccc(O)cc12 | -0% |
| CCC(C)(C)NC(C)C(O)c1ccc(C(F)(F)F)cc1 (stereo unspecified) | 0.8% |
| COc1ccc(OC)c(CNCC(O)c2cc(C(F)(F)F)cc(C(F)(F)F)c2)c1 (stereo unspecified) | 2.61% |
| O=C(/C=C/c1ccc(Cl)c(Cl)c1)NC1C2CCC1CC(CN1CCC(c3c[nH]c4ccccc34)CC1)C2 (stereo unspecified) | 5.97% |
| CCc1ccc(CN2CCC(CN(C(=O)c3ccccc3)c3ccc(Cl)cc3)CC2)cc1 | 7.2% |
| CCCCC1(NC(=O)[C@H](CC(C)C)Nc2ccc(C#N)c3ccccc23)CCCCC1 | 0.97% |
| Brc1cnc(NC2=NCCN2)c(Br)c1 | 1.46% |
